# In all, about 33,000 sequences were measured (“E-score (-0.5 to 0.5)”: median about -0.012, highest 2% from about 0.29 on). The list shows a part of the results.
# Biological target: T1, Ybr033w (UniProt P38073)
# T1 sequence: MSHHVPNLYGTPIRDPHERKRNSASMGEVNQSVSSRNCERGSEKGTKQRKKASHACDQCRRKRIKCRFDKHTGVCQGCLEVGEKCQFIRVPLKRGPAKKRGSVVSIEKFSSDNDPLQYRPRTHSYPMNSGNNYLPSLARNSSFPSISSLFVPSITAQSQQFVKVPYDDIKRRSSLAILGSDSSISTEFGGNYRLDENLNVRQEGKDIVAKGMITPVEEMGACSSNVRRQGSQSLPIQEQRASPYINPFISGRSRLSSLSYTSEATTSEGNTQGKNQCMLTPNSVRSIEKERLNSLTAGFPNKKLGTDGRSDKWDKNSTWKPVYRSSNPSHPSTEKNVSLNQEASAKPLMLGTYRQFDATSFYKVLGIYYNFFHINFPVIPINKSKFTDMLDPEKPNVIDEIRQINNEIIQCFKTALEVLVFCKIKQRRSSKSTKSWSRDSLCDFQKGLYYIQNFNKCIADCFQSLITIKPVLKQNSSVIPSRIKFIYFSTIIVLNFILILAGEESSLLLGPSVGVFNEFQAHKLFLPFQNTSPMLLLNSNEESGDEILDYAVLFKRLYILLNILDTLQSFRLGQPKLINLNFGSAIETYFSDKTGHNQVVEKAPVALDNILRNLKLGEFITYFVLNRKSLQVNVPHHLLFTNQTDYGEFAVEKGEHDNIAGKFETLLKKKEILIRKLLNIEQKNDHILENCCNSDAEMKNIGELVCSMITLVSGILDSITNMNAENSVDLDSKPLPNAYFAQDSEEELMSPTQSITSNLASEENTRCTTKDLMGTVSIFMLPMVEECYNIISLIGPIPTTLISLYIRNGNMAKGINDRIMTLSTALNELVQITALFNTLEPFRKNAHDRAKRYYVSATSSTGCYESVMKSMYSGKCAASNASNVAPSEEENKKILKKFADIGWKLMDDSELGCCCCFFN
# Test: PBM E-score (8-mer binding enrichment) (E-score (-0.5 to 0.5)); higher = stronger / more preferred TF binding; most listed sequences are background and not binding sites
# Conditions: protein concentration: 200 nM; construct: GST-full length
# In short: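 Universal all-10-mer Agilent arrays, fresh or stripped once, were converted to double-stranded form by primer extension. GST-tagged yeast transcription factors from PURExpress in vitro transcription/translation, full-length or DNA-binding domain only, were applied at about 100-200 nM and detected with fluorescent anti-GST. After masliner normalisation, the Universal PBM Analysis Suite scored each ungapped eight-base word together with its reverse complement by E-score.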
row,Sequence,PBM E-score
1,AGTTTCGA,0.137
2,ATTAGCAG,0.0537
3,ATTACTAC,0.176
4,TCGCGCCA,0.0305
5,TCATTAGA,0.135
6,AGACCTGG,-0.159
7,ATGCTAGA,0.0828
8,ACCGAACC,-0.212
9,GGCGTATA,-0.054
10,AAGTTATA,0.166
11,ACGGAGAC,0.0475
12,GCTAGCGA,-0.161
13,ACAAAGCG,0.151
14,GATTAACA,0.396
15,ACCCGAGT,-0.0747
16,ACTAACCG,0.0897
17,ATAAGAAA,0.209
18,AACTTTCC,0.078
19,TACCTACA,0.0856
20,ATCGTAGA,-0.0122
21,TTATCGAA,0.244
22,CTAACTCC,-0.0896
23,CTTACGTA,0.014
24,AACGAGAA,0.0786
25,AACGAAAA,0.17

row,Sequence,PBM E-score
1,TAGTCGGA,0.209
2,ATGCTTTC,0.0556
3,GAACTTGA,0.181
4,ACGGACCG,-0.21
5,AAAAGAAG,0.21
6,GGTATTTA,0.125
7,CTATAGAA,0.22
8,GATGATCC,0.4
9,AGGTGGTG,-0.0778
10,CCGGAGAG,-0.195
11,CTAACCGC,-0.142
12,ACTCGGGC,-0.108
13,GTTGTCGA,-0.101
14,GATGCACA,-0.118
15,ATTTCCCC,-0.0347
16,AGCACATA,-0.00876
17,ATGATGTA,0.209
18,CGCTGGAG,-0.0626
19,CACGAACG,-0.0927
20,CTAACGTC,-0.0213
21,GAGGACTA,-0.0177
22,GAGTGACA,0.056
23,ACCGCCTG,-0.216
24,ATCTACCA,0.287
25,ATGCCTAA,0.0133

row,Sequence,PBM E-score
1,GCGGGAAC,-0.153
2,CCCACCAC,-0.0659
3,GATGGTGA,-0.00523
4,GACTGCGA,-0.13
5,AACCTCCA,-0.254
6,AATAAGCA,0.193
7,AGGGTCGC,0.00413
8,GAACGAGC,-0.2
9,ACGCCAAG,-0.315
10,CCGGGCTC,-0.323
11,AGTCTTGA,0.0495
12,ACTGGGGA,-0.232
13,ATACGCAA,0.108
14,AACTGGAC,-0.143
15,CGATTCAC,-0.00698
16,AAGAAGCG,-0.145
17,AATTATCA,0.324
18,AGGACACG,-0.223
19,AAAGAACC,0.108
20,AAAGGCCT,-0.287
21,GCAGCGTA,-0.106
22,AACTTTCA,0.0459
23,GCTCTCCA,-0.268
24,CTGACCGA,-0.119
25,CTAGTTCA,0.169

row,Sequence,PBM E-score
1,AGATCGGC,-0.189
2,AGGGATAG,-0.172
3,CTTTTTGC,0.0416
4,AGATGTAG,0.0547
5,TACTGATA,0.15
6,AGTCACAC,0.0366
7,GCGCGTAA,0.0616
8,ATTTAGAC,0.131
9,TCATTCGA,0.168
10,TAGATAGA,0.0987
11,AAACCGGG,-0.042
12,ATTGCAAC,0.0245
13,CCAACGCC,-0.225
14,CAAGCTGG,-0.248
15,AGGTGCGA,-0.198
16,GCTGCTGA,-0.0546
17,AGAAAGAA,0.13
18,CTGGAAGA,0.189
19,AACTGCGA,-0.0294
20,AACCCCAG,-0.151
21,AACCCCCG,-0.382
22,ACGACGCC,-0.268
23,ATGCGAGA,-0.0599
24,CCGCTGCC,-0.418
25,CAAATACC,0.112

row,Sequence,PBM E-score
1,CACCGTGG,-0.311
2,CAGTCCGC,-0.135
3,GGCTGCGA,-0.136
4,AGCTAAAG,0.0298
5,CATCAAAG,0.0135
6,ACTACGTG,-0.197
7,AAACTATA,0.17
8,AAACCTTA,0.157
9,CGTAATTA,0.29
10,GGAGTCGA,-0.0249
11,CGTACGAC,-0.204
12,CAGATCAC,-0.00558
13,CGATGGAG,-0.134
14,ACTGGGAT,0.0931
15,ACATATAC,0.112
16,CGGCAGGC,-0.339
17,AGGCAAGG,-0.21
18,ATGGACGG,0.0966
19,CGGCGGGC,-0.127
20,ACGCTGGG,-0.23
21,GGTAGTTA,0.0571
22,GTGATTCA,-0.00395
23,ATGGTGGC,-0.291
24,GAGTCATA,0.037
25,ATATTTAC,0.215

row,Sequence,PBM E-score
1,AAAAGTGA,0.199
2,GGAACGGA,-0.00114
3,AGTAACAA,0.17
4,CGCCTACA,-0.0696
5,CGCCTAGC,-0.194
6,GCACGCAA,-0.144
7,GGAATATA,0.291
8,CTACAGAG,-0.014
9,TATGTAGA,0.0679
10,AGATGAGC,-0.0227
11,CATGCAAG,-0.0221
12,CCGAGCTA,-0.204
13,CACGAGGA,-0.137
14,GAGATCTC,-0.0343
15,ATCCTGTA,0.192
16,AGCAAATG,0.105
17,TAGAGACA,-0.043
18,GGCATTAC,-0.0932
19,CGCGTCAA,-0.0732
20,ATCGTGAG,-0.135
21,AGCCAAAC,0.154
22,CGAATCTC,-0.0445
23,ATACTAAA,0.284
24,CAATCGGG,-0.0536
25,CTGCGTCC,-0.22

row,Sequence,PBM E-score
1,GGCTTTAA,0.0415
2,ACAGTCCC,-0.12
3,TAGGGGAA,-0.188
4,GCATGCAC,-0.144
5,CCGAATCA,-0.0543
6,GCCATTAA,0.137
7,GACTCCCA,-0.305
8,GCGTTATA,0.0389
9,CATGGGTC,-0.199
10,AGCTCTAG,-0.157
11,GAATCAAC,0.257
12,GACACGAA,-0.0273
13,GGGTCGTA,-0.177
14,CACATCAA,0.127
15,TACGTGCA,-0.102
16,AGAAGGAT,-0.0293
17,ACCCCATA,-0.149
18,CCTTGAAG,-0.153
19,AGTTCACA,0.0967
20,AGGTTAGA,-0.0601
21,TCAATCAA,0.217
22,CGTATATC,-0.0176
